# The whole screen tested about 52,000 compounds, of which about 4,300 (8.3%) were called active. Rule as the data show it: active = survival mostly below about 52% (no sharp cut-off); inactive = mostly above about 56%. Some of the results follow.
# Tested on: DeltatarO mutant
# Experiment: growth inhibition of S. aureus wild type versus tarO mutant, primary screen, teichoic acid synthesis inhibitors, RN4220, OD600 (AID 463173)
# Details: OD600, 18 h, stronger effect = lower value, screened at 18.75 µg/mL (by protocol)
row,SMILES,survival
1,Cc1c(CNCc2ccc(OC(C)C)cc2)c(C(=O)O)c(C)n1Cc1ccc(Cl)cc1,inactive: 98%
2,CCN1CCN(CCCNC(=O)c2cc3c(=O)n(CC)c4ccccc4c3s2)CC1,inactive: 97%
3,COc1ccc(CCNC(N)=S)cc1OC,inactive: 99%
4,COc1ccc(-c2cc(C(F)(F)F)nc(SCC(=O)N(C)Cc3ccccc3)n2)cc1OC,active: 33%
5,Cc1ccc2cc(CN(CC3CCCO3)C(=O)C(F)(F)F)c3nnnn3c2c1C (configuration not stated),inactive: 76%
6,O=C(Nc1cccc(-c2nc3ccccc3o2)c1)c1cc([N+](=O)[O-])ccc1N1CCOCC1,active: 42%
7,Cc1cccc(C)c1OCCSc1nc2ccccc2n1CC(=O)O,inactive: 83%
8,CCN(Cc1ccccc1)C(=O)Cn1c(=O)n(-c2ccc(F)c(Cl)c2)c(=O)c2sc3ccccc3c21,inactive: 89%
9,COc1ccc(-c2nc3c4cnn(-c5ccccc5F)c4ncn3n2)cc1,inactive: 59%
10,CC(=O)Nc1ccc(NS(=O)(=O)c2ccc3c(c2)CC(C)N3C(=O)C2CCC2)cc1 (configuration not stated),inactive: 85%
11,COC(=O)CC1Oc2ccc(F)cc2-n2cc(-c3ccc(Cl)cc3)nc21 (configuration not stated),inactive: 65%
12,COc1ccc(-c2cnc(N)n2CC2CCCO2)cc1 (configuration not stated),inactive: 71%
13,COc1ccc(NC(=O)CN2CCCN(S(=O)(=O)c3ccc(Br)cc3)CC2)c(OC)c1,inactive: 65%
14,CCOC(=O)c1ccc(NC(=O)CCS(=O)(=O)c2ccc(C)cc2)cc1,inactive: 68%
15,Cc1cccc(-c2nc(CCNC(=O)c3ccco3)cs2)c1,active: -5%
16,COc1ccc(Cn2nnnc2C(c2ccccc2)N2CCC(C)CC2)cc1 (configuration not stated),inactive: 68%
17,CC1CCCCN1C(=S)Nc1ccccc1 (configuration not stated),inactive: 100%
18,CC(C)OCCCNC(=O)CCCn1c(=O)[nH]c2ccsc2c1=O,inactive: 80%
19,C=CCn1cnc2scc(-c3ccccc3)c2c1=O,inactive: 89%
20,CCOc1ccc(CNC(=O)c2cc(=O)[nH]c3ccc(S(=O)(=O)N4CCCCC4)cc23)cc1,inactive: 84%
21,Cc1cc(C)cc(Nc2cc(C(=O)NCCCN(Cc3ccccc3)C(C)C)c3ccccc3n2)c1,active: -4%
22,O=C(O)CSC1=NCCCN1,inactive: 92%
23,COc1ccc(CN(C(=O)c2cc3ccccc3oc2=O)C2CCS(=O)(=O)C2)cc1 (configuration not stated),inactive: 55%

row,SMILES,survival
1,COc1ccc(C(=O)Nc2ccc(NC(=O)c3ccco3)cc2)cc1OC,inactive: 71%
2,COc1cc(NC(=O)CC(c2ccc(C)cc2)N2Cc3ccccc3C2=O)cc(OC)c1 (configuration not stated),inactive: 67%
3,Cc1ccc(-c2noc(-c3ccc(NCc4ccco4)c([N+](=O)[O-])c3)n2)cc1,inactive: 98%
4,COc1ccc(S(=O)(=O)C(C)(C)C)cc1,inactive: 78%
5,COc1cc(C2CC(=O)c3c([nH]c(C(=O)OCC4CCCCC4)c3C)C2)cc(OC)c1OC (configuration not stated),inactive: 82%
6,COc1ccc(-c2nc(C)c(CCNC(=O)C(=O)Nc3ccccc3C#N)s2)cc1OC,inactive: 88%
7,COc1ccc(-n2nnc(-c3nc(-c4cccs4)no3)c2N)cc1OC,inactive: 74%
8,COC(=O)c1c(NC(=O)c2nc(SCc3cccc(C)c3)ncc2Cl)sc2c1CCCC2,inactive: 113%
9,CC(=O)N1CCCC1c1nc2ccccc2n1Cc1cccc(Cl)c1 (configuration not stated),inactive: 85%
10,CCOc1ccccc1CNC(=O)Cn1ncn2nc(-c3cccs3)cc2c1=O,inactive: 67%
11,Cc1ccc(C)c(CNC(=O)C2CCN(c3nc4ccccc4nc3C(F)(F)F)CC2)c1,inactive: 98%
12,COc1ccc(Nc2nnc(-c3cc4c(ccc5ccccc54)oc3=O)s2)cc1,inactive: 82%
13,COc1ccccc1CCNC(=O)C(=O)NCC(c1cccs1)S(=O)(=O)c1ccc(C)cc1 (configuration not stated),inactive: 68%
14,COc1ccccc1C(=O)Nc1nc2nc(-c3ccccc3)cc(=O)n2[nH]1,inactive: 74%
15,CCc1nn2c(=O)cc(COC(=O)c3ccc(NC(=O)c4cccs4)cc3)nc2s1,inactive: 94%
16,Cc1ccccc1NS(=O)(=O)c1ccc2[nH]cc(C(=O)NC(C)c3ccccc3)c(=O)c2c1 (configuration not stated),inactive: 90%
17,CCN(CC)CCCNC(=O)c1ccc2nc(N3CCCCC3)sc2c1,inactive: 102%
18,CCNC(=O)c1ccc2nc(CCc3ccccc3)oc2c1,inactive: 102%
19,COc1ccc(CCNC(=O)c2cc(C)nc3c2c(C)nn3-c2ccc(C)cc2)cc1OC,inactive: 102%
20,O=C1c2ccccc2C(=O)N1COc1cccc2cccnc12,inactive: 97%
21,Cc1n[nH]c(C)c1S(=O)(=O)N1CCCC(C(=O)Nc2ccc(Br)cc2)C1 (configuration not stated),inactive: 130%
22,Cc1cc(Nc2ccccc2C)nc(-n2nc(C)cc2C)n1,inactive: 83%
23,O=C1C(=O)N(C2CCN(C(=O)c3ccc(Cl)cc3)CC2)CCN1Cc1ccc(F)cc1,inactive: 78%

row,SMILES,survival
1,CCN1CCN(CCC(=O)Nc2ccc3c(c2)CCC3)CC1,inactive: 95%
2,CCCOc1ccc(CN(C(=O)c2cc(=O)c3ccc(C)cc3o2)C2CCS(=O)(=O)C2)cc1 (configuration not stated),active: 36%
3,COc1ccc(N2CCN(S(=O)(=O)CCNC(=O)C3CC(=O)N(c4ccccc4)C3)CC2)cc1 (configuration not stated),inactive: 83%
4,COc1cccc(C(=O)CC2(O)C(=O)Nc3ccc(Cl)cc32)c1 (configuration not stated),inactive: 176%
5,COc1cc(C)ccc1OCCSc1nc(-c2cccc(C)c2)nc2cc(=O)[nH]n12,inactive: 69%
6,CCOC(=O)c1ccc(C(=O)OCC)nc1,inactive: 83%
7,Cc1nc(CC(=O)Nc2cc(Cl)ccc2C)cs1,active: 45%
8,O=C(CN1CCSc2ccccc21)NCc1ccccc1F,inactive: 85%
9,CCOc1ccccc1C(=O)N(Cc1cc(OC)c(OC)c(OC)c1)C1CCS(=O)(=O)C1 (configuration not stated),inactive: 48%
10,CCOc1ccccc1CN1CCc2nc(N3CCN(c4ccccc4F)CC3)ncc2C1,active: -4%
11,COc1ccc2nc(N(Cc3cccnc3)C(=O)C3COc4ccccc4O3)sc2c1 (configuration not stated),inactive: 78%
12,Cc1cc(C)c(Cn2c3ccccc3c3cnn(CC(=O)NCc4ccccn4)c(=O)c32)c(C)c1,inactive: 95%
13,O=C(CCS(=O)(=O)c1ccc(Br)cc1)Nc1ccc(Cl)c(C(F)(F)F)c1,inactive: 90%
14,CCOC(=O)c1cccc(NC(=O)c2cn(-c3cccc(OC)c3)c(=O)c3ccccc23)c1,inactive: 60%
15,CCc1nc(SCC(=O)O)c(C#N)cc1C,inactive: 47%
16,CC(=NC1CC1)C1=C(O)c2ccccc2C1=O,inactive: 92%
17,COc1cccc(NC(=O)Cn2c(=O)n(CC(=O)NCc3ccc(C)cc3)c(=O)c3sccc32)c1,inactive: 77%
18,Nc1nnc(SCC(=O)Nc2ccccc2)s1,inactive: 73%
19,Cc1ccc2nc(-c3c[nH]c4ccccc34)c(Nc3ccccc3C)n2c1,inactive: 96%
20,Cc1ccc(C(c2ccccc2)c2c(C)[nH]c3ccccc23)s1 (configuration not stated),active: 26%
21,COCCNC(=O)c1nc2c(nnn2Cc2cc(C)ccc2C)c(=O)[nH]1,inactive: 90%
22,CCN1CCN(C(=O)Cn2ncc3c4ccccc4n(Cc4ccccc4)c3c2=O)CC1,inactive: 81%
23,Cc1ccc(-c2cc(NC(=O)COc3ccc(Cl)c(C)c3)on2)cc1,inactive: 86%

row,SMILES,survival
1,Cc1ccc(/C=C/C(=O)Nc2ccc(S(N)(=O)=O)cc2)o1,inactive: 61%
2,Cc1ccc(NC(=O)N(Cc2cc3cc(C)cc(C)c3[nH]c2=O)CC2COCCO2)cc1 (configuration not stated),inactive: 99%
3,CCc1ccc(-n2c(N3CCN(c4cccc(Cl)c4)CC3)nc3ccccc3c2=O)cc1,inactive: 67%
4,Cc1ccc(-n2c(SCC(=O)NCc3ccccc3)nc3n[nH]c(C)c3c2=N)cc1Cl,active: -5%
5,O=C(NCC(c1cccs1)S(=O)(=O)c1cccs1)c1ccc(Cl)cc1 (configuration not stated),inactive: 75%
6,Fc1cc(F)c2ncc3c(-c4ccccc4)nn(-c4cccc(Cl)c4)c3c2c1,inactive: 123%
7,CC(C)OCCCNC(=O)C(=O)Nc1ccc2nc3n(c(=O)c2c1)CCCCC3,inactive: 103%
8,Cc1ccc(Sc2ccc(N3CCC(C(=O)Nc4ccc(C)c(F)c4)CC3)nn2)cc1,inactive: 71%
9,Cc1cccc(Cn2c(=O)n(Cc3ccccc3)c(=O)c3oc4ccccc4c32)c1,inactive: 86%
10,Cc1ccccc1NC(=O)C1CCN(C(=O)c2cnn(-c3ccccc3)c2-n2cccc2)CC1,inactive: 79%
11,Cc1cccc(-c2nc3nc(C)cc(NCc4ccccc4Cl)n3n2)c1,inactive: 74%
12,COc1cc(NC(=O)N(Cc2ccco2)C2CCN(C(C)=O)CC2)cc(OC)c1OC,inactive: 134%
13,COc1ccc(-c2cc(C(F)(F)F)nc(-n3nc(C(F)(F)F)cc3C)n2)cc1,active: 16%
14,CN1CCN(CCC(=O)Nc2cccc(F)c2)CC1,inactive: 96%
15,CCOC(=O)c1cc2c(=O)n3ccccc3nc2n(CCOC)c1=NC(=O)C(C)(C)Oc1ccc(Cl)cc1,inactive: 78%
16,Cc1ccc(Cn2ccn(CC(=O)Nc3c(C)cc(C)cc3C)c(=O)c2=O)cc1,inactive: 47%
17,CC(C)c1cnc2c(c1SCc1cccc(F)c1)c(=O)n(C)c(=O)n2C,inactive: 80%
18,Cc1ccc(-c2nc3nc(C)cc(C)n3c2Nc2ccc3c(c2)OCCO3)cc1,inactive: 119%
19,CC(=O)N1CCc2cc(Br)cc(S(=O)(=O)N3CCC(C)CC3)c21,inactive: 127%
20,CCOc1ccc(NC(=O)Cn2c(=O)n(Cc3nc(-c4ccccc4)no3)c(=O)c3cc4c(cc32)OCO4)cc1,inactive: 89%
21,CC(=O)c1ccc(NC(=O)c2nc(-c3ccccc3)n(-c3ccc(Cl)cc3)n2)cc1,active: 49%
22,Cc1cn2c(=O)cc(COc3ccccc3NC(=O)c3ccc(C(C)(C)C)cc3)nc2s1,inactive: 82%
23,Cc1cccc(CNC(=O)c2oc3c(c2C)-c2nn(Cc4cccc(Cl)c4)cc2CC3)c1,inactive: 97%

# Source: PubChem BioAssay AID463173 (ICCB-Longwood Screening Facility, Harvard Medical School, 2010)
